Assay results from the antibiotic and cytotoxicity screens of Wong et al. (2023).
The list shows a part of the results.

System: HSkMC (human skeletal muscle cells)
Assay: cytotoxicity call (relative viability < 0.9)
Details: 10 µM

Row | SMILES | cytotoxicity call
1 | Nc1nc2nc[nH]c2c(=S)[nH]1 | inactive
2 | C[C@H]1CN([C@@H](C)CO)C(=O)c2c(c3ccccc3n2C)-c2ccccc2CO[C@H]1CN(C)C(=O)Nc1ccccc1 | inactive
3 | C[C@@H]1CN([C@H](C)CO)C(=O)Cc2cc(NS(=O)(=O)c3ccccc3)ccc2O[C@@H]1CN(C)CC1CC1 | inactive
4 | COc1ccc(S(=O)(=O)Nc2cccc3c2O[C@@H](CN(C)S(=O)(=O)c2ccccc2)[C@@H](C)CN([C@@H](C)CO)C3=O)cc1 | inactive
5 | C[C@@H]1CN([C@@H](C)CO)C(=O)c2cccc(NC(=O)c3ccc(-c4nccs4)cc3)c2O[C@H]1CN(C)CC1CCCCC1 | inactive
6 | C[C@H]1CN([C@@H](C)CO)C(=O)c2ccccc2-c2ccccc2CO[C@H]1CN(C)Cc1ccc(Oc2ccccc2)cc1 | inactive
7 | O=C(O)C[C@H]1C=C[C@@H](NC(=O)c2ccncc2)[C@H](CO)O1 | inactive
8 | C[C@H]1CN([C@@H](C)CO)C(=O)c2cc(C#Cc3cccnc3)cnc2O[C@@H]1CN(C)S(C)(=O)=O | inactive
9 | C[C@H](CO)N1C[C@H](C)[C@@H](CN(C)C(=O)Nc2ccc(C(F)(F)F)cc2)Oc2ccc(NC(=O)Nc3ccccc3)cc2C1=O | inactive
10 | C[C@@H]1CCCCO[C@H](CN(C)S(=O)(=O)c2ccc(Cl)cc2)[C@H](C)CN([C@H](C)CO)C(=O)c2cc(NC(=O)NC3CCCCC3)ccc2O1 | inactive
11 | CC/C=C/C(=O)N(C[C@@H]1CCCO1)[C@@H]1CC(C(=O)NCCO)=C[C@H](Oc2c(I)cc(CO)cc2OC)[C@H]1O | inactive
12 | CCN(CC)c1ccc(N2CC=C[C@@]34O[C@@H]5/C=C\CCCOC(=O)[C@@H]5[C@H]3C(=O)N(CCCCCCO)[C@@H]4C2=O)cc1 | inactive
13 | COc1ccc(S(=O)(=O)N(C)C[C@H]2Oc3ccc(NC(=O)Nc4cccc5ccccc45)cc3C(=O)N([C@@H](C)CO)C[C@H]2C)cc1 | inactive
14 | C[C@@H]1CN([C@H](C)CO)C(=O)c2c(c3ccccc3n2C)-c2ccccc2CO[C@@H]1CN(C)C(=O)c1cc(Cl)cc(Cl)c1 | inactive
15 | COc1ccc(NC(=O)N(C)C[C@@H]2Oc3ncc(C#C[C@@H](C)O)cc3C(=O)N([C@@H](C)CO)C[C@@H]2C)cc1 | inactive
16 | CN1C(=O)CO[C@H]2CN(C(=O)NCc3cccnc3)C[C@@H]21 | inactive
17 | C[C@H]1CN([C@@H](C)CO)S(=O)(=O)c2ccc(C#Cc3cccc(F)c3)cc2O[C@H]1CN(C)S(=O)(=O)c1ccccc1F | inactive
18 | CO[C@H]1O[C@H](COS(=O)(=O)O)[C@@H](O[C@@H]2O[C@@H](C(=O)O)[C@@H](OC)[C@H](O)[C@H]2OS(=O)(=O)O)[C@H](O)[C@H]1NS(=O)(=O)O | inactive
19 | COC1(NC(=O)Cc2cccs2)C(=O)N2C(C(=O)[O-])=C(COC(N)=O)CSC21.[Na+] (stereo not given) | inactive
20 | O=C(Cc1cccs1)N1c2ccccc2Sc2ccccc21 | inactive

Row | SMILES | cytotoxicity call
21 | Cn1cnc(S(=O)(=O)N[C@@H]2CC[C@@H](CC(=O)NCC3CC3)O[C@@H]2CO)c1 | inactive
22 | O=S(=O)(NCC[C@H]1CC[C@H](NS(=O)(=O)c2ccccc2Cl)[C@@H](CO)O1)c1ccc(F)cc1 | inactive
23 | CC(C)NC(=O)N(C)C[C@@H]1OCCCC[C@H](C)Oc2ccc(NS(=O)(=O)c3cn(C)cn3)cc2C(=O)N([C@H](C)CO)C[C@@H]1C | inactive
24 | O=C1NC2=C(C(=O)OC2)[C@H](c2ccccc2)N1 | inactive
25 | CN(C)CC(=O)N[C@@H]1C=C[C@H](CC(=O)NCCN2CCCCC2)O[C@@H]1CO | inactive
26 | N[C@H](CCC(=O)O)C(=O)O | inactive
27 | CO[C@@H]1CN(C)C(=O)c2cc(NC(=O)Nc3ccc(Cl)cc3)ccc2OC[C@@H](C)N(C(=O)Nc2c(C)noc2C)C[C@H]1C | inactive
28 | COc1ccc(CN(C)C[C@H]2OCCCC[C@@H](C)Oc3ccc(NS(=O)(=O)c4ccc(F)cc4)cc3C(=O)N([C@@H](C)CO)C[C@@H]2C)cc1 | inactive
29 | C[C@H](CO)N1C[C@H](C)[C@H](CN(C)S(=O)(=O)c2ccccc2)Oc2ccc(NS(=O)(=O)c3cccs3)cc2CC1=O | inactive
30 | C[C@@H]1CCCCO[C@@H](CN(C)Cc2ccccc2)[C@H](C)CN([C@H](C)CO)C(=O)c2cc(NC(=O)Cc3ccccc3)ccc2O1 | inactive
31 | CCS(=O)(=O)Nc1ccc2c(c1)C(=O)N(C)[C@H]1CC[C@H](CC(=O)N[C@@H]3CCN(Cc4ccccc4)C3)O[C@@H]1CO2 | inactive
32 | C=CC(C1=CC(=O)C(OC)=CC1=O)c1ccc(OC)cc1 (stereo not given) | inactive
33 | COc1ccc(S(=O)(=O)Nc2cccc3c2O[C@H](CN(C)S(C)(=O)=O)[C@H](C)CN([C@@H](C)CO)C3=O)cc1 | inactive
34 | C[C@H](CO)N1C[C@H](C)[C@@H](CN(C)C(=O)c2ccccc2)OCCCC[C@H](C)Oc2ccc(NC(=O)c3ccccc3)cc2C1=O | inactive
35 | Cc1cc2nc3c(=O)[nH]c(=O)nc-3n(C[C@H](O)[C@H](O)[C@H](O)CO)c2cc1C | inactive
36 | C[C@@H]1CN([C@H](C)CO)C(=O)c2cccc(NC(=O)C3CCOCC3)c2O[C@@H]1CN(C)C(=O)NC1CCCCC1 | inactive
37 | CC(C)C#Cc1cnc2c(c1)C(=O)N([C@H](C)CO)C[C@@H](C)[C@@H](CN(C)S(=O)(=O)c1cn(C)cn1)O2 | inactive
38 | Cn1cc(CN2CCC(C(=O)N[C@@H](c3ccc(F)cc3)c3ccc4ccccc4n3)CC2)c2ccccc21 | active
39 | C[C@@H]1CN([C@@H](C)CO)C(=O)Cc2cc(NC(=O)Nc3cccc4ccccc34)ccc2O[C@@H]1CN(C)Cc1ccccc1 | inactive
40 | Cc1noc(C)c1S(=O)(=O)Nc1ccc2c(c1)CC(=O)N([C@H](C)CO)C[C@H](C)[C@H](CN(C)S(=O)(=O)c1cccs1)O2 | inactive
